The whole screen tested about 46,000 compounds, of which about 60 (0.1%) were called active. Roughly 3% stayed inconclusive and do not appear here. Calls come from the whole dose curve; as a rule, active = well fitted inhibition curve with a large enough effect; inconclusive = small, poorly fitted or top-dose-only effect; inactive = no such curve, though single readings can be large or run the other way. The list shows a part of the results.
experiment: Primary qHTS assay for Inhibitors of ovarian cancer metastasis using an organotypic tumor microenvironment (TME) model.; note: nearly all actives have a fitted effect of over 65% in size;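 for activity change, negative = inhibition: plate controls were DMSO wells for no effect and tomatine positive control wells for full effect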; settings: SKOV3ip1-GFP adhesion/invasion on 3D omental model, fluorescence; series mostly up to 45.8 µM; activity change, negative = inhibition: at the top concentration
Method in brief: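 Primary human omental fibroblast/mesothelial 3D culture pre-formed 48 h. SKOV3ip1-GFP cells added with compounds (0.36-46 umol/L), incubated 2 h RT/16 h 37 C, fixed; GFP cells quantified at 488/509 nm.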

Activity change, negative = inhibition, inactive:
Cc1cc2oc(C(=O)Nc3nc(-c4ccccc4)ns3)c(C)c2cc1Cl -13.6%
CN1CCN(C(CNC(=O)C(=O)Nc2ccc(F)cc2)c2cccnc2)CC1 (configuration not stated) -4.88%
O=C(c1ccc2c(c1)N(Cc1cccc(Cl)c1)C(=O)c1ccccc1S2(=O)=O)N1CCN(c2cccc(C(F)(F)F)c2)CC1 0.621%
COc1ccc(-c2nn(C)c3sc(C(=O)N4CCN(c5cc(Cl)ccc5C)CC4)cc23)cc1OC 7.04%
CCOc1ccc(-c2nonc2NC(=O)COc2ccc(C)c(C)c2)cc1OCC 3.14%
Cc1nc2cc(-c3cccc(F)c3)nn2c(C)c1CCC(=O)NC1CCCCC1 10.9%
CCOc1ccc(NC(=O)CSc2nnc(NC(=O)Nc3ccccc3)s2)cc1 2.01%
COc1ccc(C(=O)CCC(=O)Nc2cccc(C(C)=O)c2)cc1 5.97%
CCOc1ccc(-c2cnc(NCc3cccc(Cl)c3)n2C)cc1 -0.707%
COc1cccc(NC(=O)C(=O)NCC(c2cccnc2)N2CCN(c3ccccc3)CC2)c1 (configuration not stated) -1.61%
Cc1cccc(CSc2cn(CC(=O)N3CCCCCC3)c3ccccc23)c1 -15.8%
CCOC(=O)CSc1nc2ccc(NC(=O)COc3ccccc3)cc2s1 29.5%
CC1CCc2c(sc(NC(=O)c3ccccc3)c2C(=O)Nc2ccccc2)C1 (configuration not stated) 7.9%
O=C(NCc1ccc(Cl)cc1)c1cnc2sc(N3CCCCCC3)nn2c1=O 0.613%
CCCOc1ccc(-c2cccc(NS(=O)(=O)c3cc(OC)ccc3OC)c2)nn1 0.694%
O=C(CCC(=O)N1Cc2ccccc2Oc2ncccc21)NCc1ccccc1Cl 2.95%
COc1ccc(Cl)cc1NC(=O)C1CCN(c2ncnc3c2nc2n3CCCCC2)CC1 2.6%
Nc1nc(=S)c2[nH]cnc2[nH]1 -28.2%
CCOc1ccc(C(=O)Nc2ccc(S(=O)(=O)N(Cc3ccccc3)c3ccccc3)cc2)cc1 1.12%
COCCNC(=O)CSc1nc(-c2ccc(F)cc2)[nH]c1-c1ccc(Cl)cc1 -5.79%
COc1ccc(OC)c(NC(=O)C2CCN(S(=O)(=O)c3ccc(C)cc3)CC2)c1 17.7%
Cc1cc(N2CCCCC2)nc2ccc(NC(=O)c3ccc(F)cc3)cc12 -9.34%
Cc1cccc(CC(=O)NC2CC(=O)N(c3cccc(F)c3)C2)c1 (configuration not stated) -0.638%
COc1cccc(N2C(=O)C(CC(=O)Nc3cccc(F)c3)N(C(C)C)C2=O)c1 (configuration not stated) 14.2%
CCOC(=O)c1c(NC(=O)CSc2cn(CCNC(=O)c3ccc(OCC)cc3)c3ccccc23)sc2c1CCCC2 7.81%
COc1ccccc1N1CCN(S(=O)(=O)c2ccc(-c3cc(C(F)(F)F)on3)s2)CC1 12.2%
CNS(=O)(=O)c1cn(CC(=O)Nc2ccc(OC)c(Cl)c2)cc1S(=O)(=O)NC 1.93%
O=C(CSc1nc2cc3ccccc3cc2[nH]1)Nc1cccc(C(F)(F)F)c1 -4.51%
CC(C)CCNC(=O)C(=O)Nc1c2c(nn1-c1ccccc1)CS(=O)(=O)C2 17.5%
CN(C(=O)CSc1nc2ncccc2o1)c1ccc(F)cc1 -23.5%
Cc1cc(F)ccc1Nc1nc2ccccc2n2nnnc12 -0.69%
CC(=O)NCCc1nc2ccccc2n1CCCCOc1ccc(Cl)cc1 -10.2%
COCc1cc(C)nc2sc3c(c12)NC(c1ccc(NC(C)=O)cc1)N(c1ccc(C)cc1)C3=O (configuration not stated) 8.5%
COc1cccc(CNc2ncnc3onc(-c4ccc(F)cc4)c23)c1 0.822%
CC(=O)Nc1nonc1-c1nnc(SCC(=O)Nc2cc(C)ccc2C)n1-c1ccccc1 -4.51%
COc1ccccc1CCNC(=O)Cc1c(C)c2ccc(O)cc2oc1=O 1.61%
CCOC(=O)c1ccccc1NC(=O)N1CCN2CCCCC2C1 (configuration not stated) 22.3%
COCc1cc(C)nc2sc3c(=O)n(-c4cc(C)ccc4C)nnc3c12 4.5%
COc1cccc2cc(-c3nc4sc(C(=O)Nc5ccc(F)cc5F)c(C)c4c(=O)[nH]3)c(=O)oc12 7.03%
C[C@]12CCC3=C4CCC(=O)C=C4CC[C@@H]3[C@H]1CC[C@@]2(O)CC#N -2.71%
Cc1ccc(OCC(=O)Nc2ccc(C(=O)OCc3cc(=O)n4nc(C5CC5)sc4n3)cc2)cc1 -7.45%
Cc1ccc(NC(=O)C(=O)NCC(c2cccnc2)N2CCN(C)CC2)cc1C (configuration not stated) -18.8%
COc1ccc(CNc2nc3c(S(=O)(=O)c4ccccc4)nnn3c3ccc(Cl)cc23)cc1 2.06%
O=C1CCSC2(C(=O)N(Cc3ccc(F)cc3)c3ccccc32)N1c1ccccc1 (configuration not stated) -7.95%
CCOC(=O)c1ccccc1NC(=O)CSc1ccc(-c2sc(-c3ccccc3)nc2C)nn1 1.73%
COc1ccc(OC)c(-c2nc(Nc3ccccc3C)sc2CC(=O)O)c1 -19.8%
COc1ccc(C2C(C(=O)Nc3ccccc3)=C(C)Nc3nc(-c4ccccc4)nn32)cc1OC (configuration not stated) -27.3%
Cc1cc(C)n(-c2nc3ccccc3nc2Nc2cccc(C(F)(F)F)c2)n1 9.02%
COc1ccc(-c2nnc(Nc3ccc(OCC(N)=O)cc3)c3ccccc23)cc1 -27.9%
O=C(CSc1nc(=O)[nH]c2c1CCCC2)Nc1cc(C(F)(F)F)ccc1Cl -6.79%
Fc1ccccc1CNCCCSc1nnnn1-c1ccccc1 5.94%
COc1ccc(-n2cc(-c3ccccc3)c3c(SC(C)C(C)=O)ncnc32)cc1 (configuration not stated) 2.27%
CCOC(=O)c1cccc(NC(=O)c2cc3c(Cl)nc4ccc(C)cc4c3s2)c1 -0.293%
COc1cccc(C(=O)Nc2ccccc2C(=O)OCc2cc(=O)n3nc(C)sc3n2)c1 16.2%
CC(C)c1ccc(NC(=O)C2CCCN(S(=O)(=O)c3ccc(Br)s3)C2)cc1 (configuration not stated) 1.79%
CCc1ccc(CNC(=O)c2ccc3c(c2)nc2n3CCOC2)cc1 -12.4%
COc1ccc(-c2noc(C3CC(=O)N(c4ccc(C)c(F)c4)C3)n2)c(OC)c1 (configuration not stated) 3.57%
COc1ccccc1CNC(=O)CSc1ncc2c(n1)-c1ccccc1N(Cc1ccc(C)cc1)S2(=O)=O 2.83%
Cc1ccc(C)c(NC(=O)C(C)n2c(=O)cc(C(F)(F)F)c3c(C)nn(C)c32)c1 (configuration not stated) 0.94%
CCc1nnc(SCc2ccc(F)cc2Cl)c2cc3sccc3n12 3.03%
CC1CCC(NC(=O)c2ccc3c(c2)N(Cc2cccc(F)c2)C(=O)c2ccccc2S3)CC1 (configuration not stated) -3.3%
COc1cc(OC)c(OC)cc1CN1CCc2nc(N3CCN(c4ncccn4)CC3)ncc2C1 4.22%
c1ccc(CNc2nc(NCc3ccccc3)c3ccccc3n2)cc1 -3.39%
COC(=O)c1cc2sccc2n1CC(=O)Nc1ccc(C)cc1C 0.408%
COc1cc2c(cc1OC)C(COc1ccc3c(C)cc(=O)oc3c1)N(C(=O)Cc1ccccc1)CC2 (configuration not stated) -1.09%
CCN(C(=O)CCc1nc(-c2ccc(C)cc2)no1)c1cccc(Cl)c1 -5.14%
Cc1ccc(-c2nc(NC(=O)CSc3ccc4ccccc4n3)ns2)cc1 -7.79%
Cc1ccccc1NC(=O)c1nc(S(C)(=O)=O)ncc1N(Cc1ccco1)Cc1sccc1C -10.3%
Cc1ccccc1OCC(=O)Nc1ccc(C(=O)OCc2cc(=O)n3ccsc3n2)cc1 30%
Cc1ccc(S(=O)(=O)c2cn(Cc3ccccc3)c3cc(N4CCCC4)c(F)cc3c2=O)cc1 2.76%
COc1cccc(CNC(=O)c2ccc3nc(-c4ccccc4)c(-c4ccccc4)nc3c2)c1OC -4.52%
Cc1cc(C)c(Cn2c3ccccc3c3cnn(CC(=O)NCCC4=CCCCC4)c(=O)c32)c(C)c1 -8.19%
CCOc1ccccc1C(=O)NC1(C(F)(F)F)C(=O)Nc2c1c(=O)[nH]c(=O)n2-c1ccccc1 (configuration not stated) 0.317%
O=C(NCc1ccc(Cl)cc1)c1ccc2c(c1)NC(=O)C(CS(=O)(=O)Cc1ccc(F)cc1Cl)N2 (configuration not stated) -5.82%
Clc1ccc(-c2csc(-c3nc(-c4ccc(Br)s4)cs3)n2)cc1 3.58%
CCC(C)Sc1oc(-c2ccco2)nc1S(=O)(=O)c1ccc(Cl)cc1 (configuration not stated) -11.3%
COc1ccc(Nc2nnc(-c3ccc(C)c(S(=O)(=O)NCc4nc5ccccc5[nH]4)c3)c3ccccc23)cc1 -8.7%
CCc1ccc(NC(=O)C2CCCN(S(=O)(=O)c3cccc4nsnc34)C2)cc1 (configuration not stated) -13.6%

outcome, inactive:
Cc1ccc(Cn2c(=O)n(Cc3ccc(Cl)cc3)c(=O)c3cccnc32)cc1
COc1ccc(CCNC(=O)Cn2c(=O)c3cccn3c3ccc(F)cc32)cc1OC
Cc1ccccc1-n1nc(CO)c(C(=O)NCCc2ccccc2)n1
COc1ccc(OC)c(CNc2ncnc3onc(-c4ccc(Cl)cc4)c23)c1
CCN(CC)c1ccc(NC(=O)c2cnn3c(C(F)F)cc(-c4ccccc4)nc23)cc1
COc1ccc(OC)c(C2CC(=O)N(c3cccc(C)c3)C3=C2C(=O)OC3)c1 (configuration not stated)
O=C(COc1ccccc1)Nc1ccc(OCc2cc(=O)n3ccsc3n2)cc1
CCN(c1ccccc1)c1nnc(NC(=O)Nc2cccc(C(F)(F)F)c2)s1
O=c1c2ccccc2n(Cc2cccc(Cl)c2)c(=O)n1CCc1ccccc1
CCOC(=O)c1cc(OC(=O)c2cccc(C)c2)n(-c2ccccc2)n1
Cc1ccc(C)c(N2CCN(c3ncnc4onc(C)c34)CC2)c1
COc1ccc(NC(=O)c2oc3c(c2C)-c2nn(Cc4c(F)cccc4Cl)cc2CC3)c(OC)c1
CCOc1ccc(Nc2oc(/C=C/c3ccc(F)cc3)nc2C#N)cc1
CCc1ccc(NC(=O)c2cc3ccccn3n2)cc1
COc1ccc(NC(=O)C(=O)NCCc2ccccc2)cc1OC
CC(C)CCNC(=O)CN1C(=O)COc2ccc(S(=O)(=O)N3CCOCC3)cc21
CCN1CCN(C(=O)c2ccc3c(c2)N(Cc2cccc(Cl)c2)C(=O)c2ccccc2S3(=O)=O)CC1
Fc1ccc(-c2cc(-c3nc(-c4cccc(Cl)c4)no3)[nH]n2)cc1
Cc1ccc(NC(=O)Cn2nnc(C(=O)NCCc3ccccc3)c2N)cc1

From PubChem BioAssay AID1963576 (National Center for Advancing Translational Sciences (NCATS), 2024)
